Hit rate of the full screen: of about 310,000 compounds, about 2,200 (0.71%) showed an effect of 50% or more. Effects have a minus sign here. The list shows a part of the results.
Target: human ether-à-go-go-related gene (hERG) potassium channel (human, UniProt Q12809)
Assay: primary screen, population patch clamp on CHO cells stably expressing hERG

human ether-à-go-go-related gene (hERG) potassium channel, sequence (Q12809 whole entry, looked up): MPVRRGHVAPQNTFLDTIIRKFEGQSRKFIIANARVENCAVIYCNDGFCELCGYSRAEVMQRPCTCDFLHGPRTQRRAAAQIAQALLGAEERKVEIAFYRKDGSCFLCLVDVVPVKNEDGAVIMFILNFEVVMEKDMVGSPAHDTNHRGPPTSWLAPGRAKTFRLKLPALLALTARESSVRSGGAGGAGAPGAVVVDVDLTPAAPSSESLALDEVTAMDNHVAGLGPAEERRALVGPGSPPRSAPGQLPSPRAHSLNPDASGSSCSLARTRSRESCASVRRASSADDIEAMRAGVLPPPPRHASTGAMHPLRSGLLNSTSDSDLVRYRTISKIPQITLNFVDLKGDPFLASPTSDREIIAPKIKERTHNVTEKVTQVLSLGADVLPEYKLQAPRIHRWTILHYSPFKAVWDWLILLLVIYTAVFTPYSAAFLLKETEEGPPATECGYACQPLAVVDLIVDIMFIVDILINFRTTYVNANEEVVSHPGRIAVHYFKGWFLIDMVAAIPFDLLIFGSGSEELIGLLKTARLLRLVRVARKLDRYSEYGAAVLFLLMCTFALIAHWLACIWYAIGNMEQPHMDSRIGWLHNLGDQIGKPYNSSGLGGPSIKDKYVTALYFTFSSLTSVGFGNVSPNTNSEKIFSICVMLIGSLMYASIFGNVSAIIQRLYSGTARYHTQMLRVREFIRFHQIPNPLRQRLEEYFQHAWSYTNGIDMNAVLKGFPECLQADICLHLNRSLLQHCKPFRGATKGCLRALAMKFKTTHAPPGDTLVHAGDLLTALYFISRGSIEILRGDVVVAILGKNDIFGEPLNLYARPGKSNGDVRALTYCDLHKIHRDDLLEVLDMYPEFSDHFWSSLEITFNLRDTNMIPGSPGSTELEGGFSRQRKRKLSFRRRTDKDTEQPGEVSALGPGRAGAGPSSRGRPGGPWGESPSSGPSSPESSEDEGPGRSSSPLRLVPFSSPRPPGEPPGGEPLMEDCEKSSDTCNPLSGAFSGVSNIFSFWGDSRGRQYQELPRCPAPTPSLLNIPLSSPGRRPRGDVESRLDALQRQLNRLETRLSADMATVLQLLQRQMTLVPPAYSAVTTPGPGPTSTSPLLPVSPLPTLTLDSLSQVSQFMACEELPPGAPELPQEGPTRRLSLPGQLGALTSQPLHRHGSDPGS

| Compound | hERG current change (%, negative = inhibition) at 1uM [%] |
| --- | --- |
| COc1cccc(NC(=O)Nc2ccc(CC(=O)O)cc2)c1 | 9.06 |
| NC(=O)c1ccccc1-c1nc(-c2ccccc2)no1 | 2.82 |
| O=C1CNC(=S)N1c1nc(-c2ccccc2)cs1 | 17.5 |
| Cc1nn(Cc2cccc(C(=O)Nc3ccn(Cc4c(F)c(F)cc(F)c4F)n3)c2)c(C)c1[N+](=O)[O-] | 8 |
| O=C(CCN1C(=O)c2ccccc2C1=O)CN1CCOCC1 | 7.68 |
| CC(=O)Nc1nc(C)c(CCC2OCCO2)c(=O)[nH]1 | 14.9 |
| O=C(CCn1c(=O)sc2ccccc21)Nc1nccs1 | 5.18 |
| C/C(CC(=O)c1ccccc1)=N\NC(=O)CC#N | 14.5 |
| Clc1nc(CN2CCOCC2)nc2sc3c(c12)CCC3 | 4.69 |
| N#C/C(=C\c1c[nH]c2ccccc12)C(=O)Nc1ncc(Cc2ccc(Cl)cc2Cl)s1 | 14.4 |
| COc1ccc(CCNC(=O)C/C(C)=N/NC(=O)C23CC4CC(CC(C4)C2)C3)cc1OC | 10.8 |
| O=C(Cn1ccc2ccccc2c1=O)NCCC(=O)N1CCN(c2ccccc2)CC1 | 21.1 |
| CCOc1cc(N2CCOCC2)c(OCC)cc1NC(=O)COC(=O)c1cccc2ccccc12 | 19.8 |
| Cc1ccc(N2CCN(C(=O)c3cccs3)CC2)cc1C | 11.6 |
| CC(C)Cc1nnc(NC(=O)CCC(=O)Nc2ccc3cn[nH]c3c2)s1 | 14.8 |
| Cc1ccccc1CCN(C(=O)Cn1nnc2ccccc21)C(C(=O)NC(C)(C)C)c1ccsc1 (centres unmarked) | 4.35 |
| CC1(NC(=O)CCc2nc3sc4c(c3c(=O)[nH]2)CCCC4)CCS(=O)(=O)C1 (centres unmarked) | -6.51 |
| O=C(O)C(=O)/C(=C\c1ccccc1)c1ccc2ccccc2n1 | 21.3 |
| COc1ccc(-c2noc(-c3ccccc3C(=O)Nc3cccnc3)n2)cc1 | -6.63 |
| Cc1cnc(NC(=O)CN(C)S(=O)(=O)c2ccc(Cl)cc2)s1 | 6.91 |
| COc1ccc2nc(NC(=O)CNS(=O)(=O)c3cccs3)sc2c1 | -8.4 |
| Cc1ccc(CN2CCN(CC(=O)O)C2=O)cc1 | 24 |

| Compound | hERG current change (%, negative = inhibition) at 1uM [%] |
| --- | --- |
| COCCn1c(SCC(=O)N2CCc3ccccc3C2)nc2ccccc2c1=O | 2.16 |
| COc1ccc([C@@H]2OC2(C(N)=O)C(N)=O)cc1 | 11.4 |
| C/C(CC(=O)Nc1ccc([N+](=O)[O-])cc1)=N/NC(=O)C1CC12CCC2 (centres unmarked) | 4.85 |
| CC(C)N1C(=O)CCC1C(=O)N1CCC(Cc2ccccc2)CC1 (centres unmarked) | -1.78 |
| C#CCN1C(=O)C2(C(C#N)=C(N)OC(C)=C2C(=O)OCc2ccccc2)c2ccccc21 (centres unmarked) | -1.85 |
| CCN(CC)C(=O)c1ccc(NC(=O)c2cccc(S(=O)(=O)N3CCN(C)CC3)c2)cc1 | 12.7 |
| CCn1c(=O)c(=O)[nH]c2cc(C(=O)NCc3ccc(F)cc3)ccc21 | 4.65 |
| CCN(CC)c1ccc(/C=N/Nc2cccc(C)c2)c(O)c1 | 8.87 |
| O=C(Nc1ccc(Br)c(C(F)(F)F)c1)c1ccc(C(F)(F)F)cc1 | 9.78 |
| CC(CC(=O)N1CCN(c2ccccc2)CC1)S(=O)(=O)c1ccc2c(c1)NC(=O)CO2 (centres unmarked) | -5.52 |
| CCOC(=O)c1sc(NC(=O)c2cc3ccccc3o2)nc1C | 6.87 |
| O=C(NCCN1CCOCC1)C(=O)NCC1OCCCN1S(=O)(=O)c1ccc(F)cc1 (centres unmarked) | 16.6 |
| Nc1nc(NC(=O)c2ccccc2)nn1-c1ccccc1 | 3.91 |
| CCOC(=O)C1CCN(C(=O)C2CCN(S(=O)(=O)c3ccc4c(c3)CC(C)N4C(C)=O)CC2)CC1 (centres unmarked) | 15.5 |
| CCOC(=O)N1CCN(C(=O)/C(=C/c2cccs2)NC(=O)c2cccs2)CC1 | -6.55 |
| CC(C)C(c1nnnn1Cc1cccs1)N1CCN(c2ccccc2)CC1 (centres unmarked) | 19.7 |
| Cc1nnc(NC(=O)CSc2nnc(-c3ccccc3)n2C)s1 | 16.8 |
| CC(C)CN(C(=O)COC(=O)C1CC1)c1c(N)n(Cc2ccccc2)c(=O)[nH]c1=O | 18 |
| CN(c1ccc(C(=O)NCc2ccncc2)cc1)S(C)(=O)=O | 6.19 |
| O=C(COc1ccccc1F)NCc1ccc(-n2cccc2)cc1 | 5.51 |
| CCc1ccc(NS(=O)(=O)c2ccc(OC)c(C)c2)cc1 | 4.26 |
| Cc1ccc(NC(=S)NCc2ccccc2)c(C)c1 | 12.6 |

| Compound | hERG current change (%, negative = inhibition) at 1uM [%] |
| --- | --- |
| Cc1ccc(/C=c2\sc3nc(-c4cccnc4)nn3c2=O)cc1 | 10.2 |
| COc1ccc(-c2c(=O)n(OCc3ccccn3)c3ccccc3[n+]2[O-])cc1OC | 21.4 |
| O=C1[C@@H]2[C@H](C(=O)N1Cc1cccnc1)[C@H]1C=C[C@@H]2C1 | 8.29 |
| CC(Oc1ccc(Cl)cc1)C(=O)/C=C/N(C)C (centres unmarked) | -8.5 |
| Cc1c(C#N)sc(C(N)=O)c1C | 7.53 |
| Cc1cc(N2CCN(C)CC2)nc2ccc(NC(=S)N3CCCCCC3)cc12 | -31.3 |
| O=C(NCc1nnnn1-c1ccc(F)cc1)C1CC(=O)N(c2ccc(F)cc2)C1 (centres unmarked) | -6.7 |
| O=C(CCCO)N/N=C/c1ccccc1[N+](=O)[O-] | 22.4 |
| CCOC(=O)c1c(-c2ccccc2Cl)cn2ccccc12 | 3.17 |
| Cc1ccc2[nH]c(=O)c(CN(C(=O)c3cccc([N+](=O)[O-])c3)C(C)C)cc2c1 | -21.5 |
| Cc1ccc(S(=O)(=O)N(CC(=O)N2CCCC2)C2CCCCC2)cc1 | -16.7 |
| CN(CC(=O)Nc1ccc(N2CCOCC2)cc1)C(=O)c1cc2c(s1)CCCC2 | 0.499 |
| NS(=O)(=O)c1ccc(CCNC(=O)/C=C/c2ccccc2[N+](=O)[O-])cc1 | 14.7 |
| CCCCCn1c(=O)c(C(=O)Nc2cnccn2)c(O)c2ccccc21 | 12.1 |
| Cn1c(=O)c2cn(-c3ccccc3)cc2n(C)c1=O | 11.1 |
| Fc1cccc2ncnc(OCc3ccccc3)c12 | 8.53 |
| O=C(Nc1ccc(F)cc1F)c1cc(Cl)sc1Cl | 5.71 |
| CCc1ccc(C(=O)N/N=C(\C)c2cccnc2)s1 | 3.33 |
| CC1CCCCC1NS(=O)(=O)CCNC(=O)c1ccc2c(c1)OCO2 (centres unmarked) | 12.4 |
| CC(=O)NCCOc1cccc2ccccc12 | 6.56 |
| Cc1cc(OCCN2CCC(Cc3ccccc3)CC2)ccc1[N+](=O)[O-].O=C(O)C(=O)O | -53.5 |
| COC(=O)c1cccc(NS(=O)(=O)c2ccc(OC)c(C(=O)N3CCOCC3)c2)c1C | 16.5 |

| Compound | hERG current change (%, negative = inhibition) at 1uM [%] |
| --- | --- |
| CC(=O)c1cccc(NC(=O)Cc2ccc3c(c2)CCCC3)c1 | 9.77 |
| CC(OC(=O)Cn1cnc2ccccc2c1=O)C(=O)NCc1ccccc1 (centres unmarked) | 15.9 |
| C#CCOCCOCCOCCNc1nc(N2CCOCC2)nc(N2CCN(C(=O)[C@H](C)n3cc(CCC[NH+]=C(N)N)nn3)CC2)n1.[Cl-] | 8 |
| O=C(CNS(=O)(=O)c1ccc(F)c(Cl)c1)N1CCCCCC1 | 4.84 |
| COc1cc(NC(=O)c2sc3ncn(CC(=O)N4CCCCC4)c(=O)c3c2C)cc(OC)c1OC | -5.49 |
| COc1cc2c(=O)n(CCCC(=O)NCC3CCCO3)c(=O)n(CC(=O)c3ccc(F)cc3)c2cc1OC (centres unmarked) | 6.14 |
| COc1ccc(CN(C(=O)c2snc(C(N)=O)c2N)C(C(=O)NC2CCCC2)c2ccc(OC)cc2)cc1 (centres unmarked) | -4.91 |
| CCC(=O)N1CCC(c2ccc(OC)cc2)=N1 | 11.6 |
| COc1ccc(CCNc2c(C=O)c(=O)[nH]c3ccccc23)cc1OC | 10.1 |
| O=C(Nc1ccc2oc(=O)ccc2c1)c1cc([N+](=O)[O-])ccc1N1CCOCC1 | -7.94 |
| CC(C)CCn1cnc2c1c(=O)n(CC(=O)NC(N)=O)c(=O)n2Cc1ccccc1 | 12.8 |
| CC(C)=CC(=O)Nc1ccc(OCc2ccccc2)cc1 | 13.3 |
| CCCN1CCc2c(sc(NC(=O)C3CCN(S(=O)(=O)c4cccs4)CC3)c2C(N)=O)C1.Cl | -2.09 |
| COc1ccc(CN2C(=O)NC(=O)/C(=C\c3cc(OC)c(OC)c(OC)c3)C2=O)cc1 | 15.9 |
| C/C=C/c1ccc(OCC(=O)OCc2csc(Nc3ccc(C)cc3)n2)c(OC)c1 | 7.08 |
| Cc1cc(C(=O)Nc2ccc3c(c2)OCO3)no1 | 9.98 |
| COc1ccc(CN(C)S(=O)(=O)c2nnc(NC(=O)c3cccc(OC)c3)s2)cc1 | 20.1 |
| CC(=O)c1ccc(N2CCN(C(=O)/C=C/c3ccc4ccccc4n3)CC2)cc1 | -10.8 |
| CC(=O)c1cccc(NC(=O)C2CCN(S(=O)(=O)c3ccccc3)CC2)c1 | 17.1 |
| Cc1ccc(N2CC(O)=C(c3ccccc3)C2=N)cc1 | 5.14 |

Source: publication PMC4336329 (PLoS ONE, 2015)
